Measurements reported in a compilation of properties of binary mixtures (doi:10.1016/s1004-9541(08)60072-5).
Some of these densities may be calculated back from excess volumes.

Assay: xn = mol fraction of the nth substance listed
Conditions: 101 kPa

CN(C)C=O + CCCC[n+]1ccn(C)c1.F[P-](F)(F)(F)(F)F
x1 = 1
Conditions	mass density [kg/m3]
293.15 K	949.1
298.15 K	944.9
308.15 K	935.5
313.15 K	930.7
318.15 K	925.9

CCCC[n+]1ccn(C)c1.F[P-](F)(F)(F)(F)F + CN(C)C=O
mass density [kg/m3]
Conditions	x2 = 0	x2 = 0.1002	x2 = 0.2	x2 = 0.3002	x2 = 0.3999	x2 = 0.5	x2 = 0.6	x2 = 0.7	x2 = 0.7999	x2 = 0.8999
293.15 K	1368.9	1349.3	1329.8	1309.5	–	1262.8	1224.4	1181.9	1129.2	1055
298.15 K	1363.5	1345.4	1325.6	1305.3	1285.6	1258.6	1220	1177.8	1124.7	1050.5
303.15 K	1359.2	1340.9	1321.3	1300.8	1281.2	1254.1	1215.5	1173.2	1120.1	1045.7
308.15 K	1355.5	1336.7	1317	–	1276.9	1249.8	–	–	1115.4	1040.9
313.15 K	1352	1332.3	1312.7	1292.3	1272.3	1245.3	1206.7	1164.3	1111	1036.3
318.15 K	–	1328.3	–	1288.1	1268.3	1241.1	–	1159.9	1106.5	1031.8
